{"source": "paper doi:10.1101/153403", "about": "“Structure of the human pro-myostatin precursor and determinants of growth factor latency” (bioRxiv, 2017)", "proteins": {"B1": {"name": "wild-type human pro-myostatin with N terminal truncation (proMSTN-Δ43) (domain or fragment)", "chain": "not shown", "modifications": "selenomethionine (SeMet-labelled protein used for phasing of the 4.2 Å structure)", "notes": "native furin site intact; also called SeMet-labelled proMSTN-Δ43; not shown: His tag, N-terminal, cleaved"}, "B2": {"name": "unprocessed human pro-myostatin (pro-MSTN) (natural protein)", "chain": "not shown", "notes": "human pro-myostatin (GDF8) lacking the signal peptide, […]; native furin site intact; pHAT2 vector; Disulfide-linked homodimer; also called uncleaved pro-myostatin; pro-GDF8; not shown: His tag, N-terminal, kept"}}, "key": {"[1]": {"target": "the molecule itself", "assay": "crystal structure; sitting drops at 19°C; proMSTN-Δ43 in 0.1 M Na acetate pH 4.2, 1 M ammonium phosphate; proMSTNΔ43-mut in 10% PEG 6K, 0.1 M HEPES pH 7.0"}, "[2]": {"target": "the molecule itself", "assay": "SEC-MALS; Superdex 200 Increase 10/300, 20 mM Tris pH 8.0, 150 mM NaCl, 100 μl of sample at 1-1.5 mg/ml"}}, "data": [{"protein": "B1", "values": [{"measurement": "binding result", "setting": "[1]", "result": "binds"}]}, {"protein": "B2", "values": [{"measurement": "stoichiometry N", "setting": "[2]", "result": 2}]}]}
